# From publication PMC4336329 (PLoS ONE, 2015)
# The whole screen tested about 310,000 compounds, of which about 14,000 (4.5%) showed an effect of 50% or more. Effects have a minus sign here. This is one part of the list.
# Target: human ether-à-go-go-related gene (hERG) potassium channel (human, UniProt Q12809)
# Test: primary screen, population patch clamp on CHO cells stably expressing hERG
# 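Also: peak tail current of the secondary pulse compared with the same well before compound.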
# Chain of human ether-à-go-go-related gene (hERG) potassium channel (Q12809 whole entry, looked up): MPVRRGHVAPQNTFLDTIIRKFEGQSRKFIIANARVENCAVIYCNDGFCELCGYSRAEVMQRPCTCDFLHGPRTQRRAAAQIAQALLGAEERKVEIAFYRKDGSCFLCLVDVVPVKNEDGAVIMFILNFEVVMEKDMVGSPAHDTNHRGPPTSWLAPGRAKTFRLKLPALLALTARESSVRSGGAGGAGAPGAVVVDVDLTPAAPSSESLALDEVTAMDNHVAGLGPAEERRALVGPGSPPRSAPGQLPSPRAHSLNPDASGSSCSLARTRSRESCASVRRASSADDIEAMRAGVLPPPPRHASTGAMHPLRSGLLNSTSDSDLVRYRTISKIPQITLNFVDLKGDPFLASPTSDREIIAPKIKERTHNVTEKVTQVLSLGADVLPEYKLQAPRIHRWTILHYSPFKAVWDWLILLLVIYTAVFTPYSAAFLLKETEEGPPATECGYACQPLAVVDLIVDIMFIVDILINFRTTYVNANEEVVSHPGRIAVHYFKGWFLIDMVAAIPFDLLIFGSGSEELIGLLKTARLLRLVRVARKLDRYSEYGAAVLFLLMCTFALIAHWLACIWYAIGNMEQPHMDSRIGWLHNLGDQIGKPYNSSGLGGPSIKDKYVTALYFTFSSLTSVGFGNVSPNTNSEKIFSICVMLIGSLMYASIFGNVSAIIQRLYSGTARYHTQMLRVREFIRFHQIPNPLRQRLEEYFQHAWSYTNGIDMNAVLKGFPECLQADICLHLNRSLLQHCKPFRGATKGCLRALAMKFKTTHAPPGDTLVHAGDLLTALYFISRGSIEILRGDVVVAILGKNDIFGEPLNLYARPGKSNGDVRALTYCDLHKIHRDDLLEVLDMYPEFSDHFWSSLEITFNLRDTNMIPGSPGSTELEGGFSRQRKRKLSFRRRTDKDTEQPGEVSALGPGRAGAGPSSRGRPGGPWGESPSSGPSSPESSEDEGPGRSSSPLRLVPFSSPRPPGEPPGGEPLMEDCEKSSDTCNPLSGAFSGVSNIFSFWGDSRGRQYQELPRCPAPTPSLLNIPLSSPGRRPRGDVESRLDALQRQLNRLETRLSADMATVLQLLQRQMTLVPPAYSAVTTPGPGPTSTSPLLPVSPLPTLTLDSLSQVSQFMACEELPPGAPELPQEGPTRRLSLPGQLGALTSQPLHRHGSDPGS
row,SMILES,"hERG current change (%, negative = inhibition) at 10uM [%]"
1,CS(=O)(=O)c1ccc2nc(NC3(C(F)(F)F)N=C4SCCN4C3=O)sc2c1 (centres unmarked),-3.53
2,O=C(Nc1ccc2nc(-c3ccc(Br)o3)[nH]c2c1)c1cccs1,-11.1
3,CCCC(C)NC(=O)c1sc2nc3n(c(=O)c2c1C)CCC3 (centres unmarked),-6.29
4,CC1(c2ccc(OC(F)F)cc2)NC(=O)N(CC(=O)NC2CCCC2)C1=O (centres unmarked),-30.1
5,O=C(NCC(=O)N(c1ccc2c(c1)OCCO2)C(C(=O)NC1CCCC1)c1ccco1)c1ccco1 (centres unmarked),-47.2
6,Oc1[nH]c2ccc(Br)cc2c1N=NC(=S)Nc1ccc(F)cc1,20.1
7,S=C(NCC1CCCO1)N1CCN(c2ccc(Cl)c(Cl)c2)CC1 (centres unmarked),-11.2
8,O=C1C2CCCN2C(c2ccccc2)N1c1nccs1 (centres unmarked),17.7
9,COc1ccc(N2CCN(Cc3nc4cc(Cl)ccc4c(=O)[nH]3)CC2)cc1,13.4
10,CSc1nc(N)c2c3c(sc2n1)CN(C)CC3,-12
11,C=CCNCCCCOc1ccc(OCc2ccccc2)cc1.O=C(O)C(=O)O,-42.1
12,O=C(Cc1ccccc1)NN1C(=O)C2C3C=CC(C3)[C@@H]2C1=O (some centres unmarked),11
13,O=C(N1CCOCC1)N1CCN(S(=O)(=O)c2cccc([N+](=O)[O-])c2)CC1,-1.19
14,Cc1ccc(NC(=O)CSCC(=O)Nc2ccccc2C(=O)N2CCCCC2)cc1,6.12
15,NC(=S)Nc1nc2ccccc2s1,15.2
16,COc1cc(C(C(=O)NC(C)(C)C)N(Cc2ccccc2)C(=O)c2cnccn2)cc(OC)c1OC (centres unmarked),5.8
17,Cn1cccc1/C=C1\SC(=Nc2ccccc2)NC1=O,12.3
18,CCOc1ccccc1C1NC(=O)NC(C)=C1C(=O)OCc1ccccc1 (centres unmarked),7.91
19,O=C(NCCCN1CCCC1=O)c1c(O)nc2ccccn2c1=O,17.3

row,SMILES,"hERG current change (%, negative = inhibition) at 10uM [%]"
1,COC(=O)c1ccc(NC(=O)c2ccccc2CC[N+](=O)[O-])cc1,11
2,Cc1cc(-c2nnco2)c(C)n1-c1ccccc1,-1.71
3,CC(=O)Nc1ccc(OCC(O)CN2CCN(c3cccc(Cl)c3)CC2)cc1 (centres unmarked),-25.2
4,COc1cc2c(C(=O)NCCCOC(C)C)cn(CC(C)C)c(=O)c2cc1OC,5.22
5,COc1cccc(N(CC(=O)NC2CCCCC2)C(=O)CCC(=O)Nc2nccs2)c1,4.13
6,O=C(C(Cc1ccccc1)n1cccc1)N1CCCCCC1 (centres unmarked),12.1
7,C=CCNC(=S)N(CC=C)C1CCS(=O)(=O)C1 (centres unmarked),11.7
8,COc1ccc(NC(=O)C2CCN(C(=O)c3cccs3)CC2)c(OC)c1,-1.83
9,CC(Sc1nnc(-c2ccncc2)n1C)C(=O)Nc1ccc(N2CCOCC2)cc1 (centres unmarked),-15.2
10,CC(CNC(=O)c1ccc(-c2ccccc2)cc1)CN(C)C (centres unmarked),-38.2
11,CN(C)c1ccc(C=C2C(=O)NC(=S)NC2=O)cc1[N+](=O)[O-],20.9
12,Cc1ccc(CCN2CCN=C2Nc2ccccc2)cc1,-25.9
13,CN(C(=O)Cn1nnc(-c2ccc(F)cc2)n1)C1CCS(=O)(=O)C1 (centres unmarked),-2.38
14,Cc1ccc(-c2ccc(OCC(=O)N3CCOCC3)cc2)cc1,-13
15,CCc1cc2c(C)cc(=O)oc2cc1OC(=O)C1CCCN1C(=O)OC(C)(C)C (centres unmarked),-14.1
16,COC(=O)CSc1nc2[nH]ncc2c(=O)[nH]1,-4.98
17,NCCc1nnc(SCC(=O)c2ccc(Cl)cc2)o1,0.757
18,Cc1cc2cc(C(c3nnnn3C(C)(C)C)N(Cc3ccco3)CC3CCCO3)c(=O)[nH]c2cc1C (centres unmarked),-14.9
19,O=C(COC(=O)/C=C/c1ccc(Cl)cc1)Nc1ccccc1,18.6

row,SMILES,"hERG current change (%, negative = inhibition) at 10uM [%]"
1,CCN(CC)c1ccc(/C=N/NC(=O)Cc2cccs2)cc1,-16.6
2,COc1ccc(C(C(=O)NC(C)(C)C)N(C(=O)Cn2nnc3ccccc32)c2ccc(C(C)=O)cc2)cc1O (centres unmarked),-13.1
3,CCOC(=O)N1CCN(C(=O)CCN2C(=O)/C(=C\c3ccccc3OC)SC2=S)CC1,-4.5
4,COc1ccc(CN2CCC(=O)N([C@H](CO)CC(C)C)CC2)cc1OC,-7.9
5,Oc1ccccc1C(Nc1nccs1)c1ccc2cccnc2c1O (centres unmarked),17.9
6,CCN(C(=O)c1cn(C)c(=O)c2cc(OC)c(OC)cc12)c1cc(OC)ccc1OC,3.82
7,O=C1NC(=O)C(CC(=O)N(c2ccccc2)C2(C(=O)NC3CCCC3)CCCCC2)N1 (centres unmarked),0.074
8,CC(Oc1ccccc1[N+](=O)[O-])C(=O)N/N=C/c1ccoc1 (centres unmarked),-6.7
9,CC1C(=O)Nc2ccccc2N1C(=O)c1ccc(F)cc1F (centres unmarked),3.22
10,COc1ccc(NC(=S)NC(=O)c2cncc(Br)c2)cc1,13.6
11,O=C(NCCc1nnc2ccc(NCc3ccccc3Cl)nn12)c1ccccc1,10.4
12,CCN(Cc1nc2ccccc2c(=O)[nH]1)C(=O)c1ccc(C)c(NC(=O)c2ccco2)c1,-24.6
13,O=C(OCc1ccccc1F)c1cc2ccccc2cc1O,20.4
14,COc1ccc(C2C(C(C)=O)=C(C)Nc3ncnn32)cc1[N+](=O)[O-] (centres unmarked),24.6
15,CNc1nc(SC)nc(N2CCOCC2)n1,-1.98
16,COc1ccc(S(=O)(=O)N2CCOC2CNC(=O)C(=O)NCC(C)C)cc1 (centres unmarked),7.26
17,COc1cccc(CC(=O)OCC(=O)NCCc2ccc(F)cc2)c1,-1.37
18,Cc1cc(C)c2oc(-c3ccc(C)c(NC(=S)NC(=O)/C=C/c4ccco4)c3)nc2c1,11.2
